According to patent US8816122B2 (The Board of Trustees of the Leland Stanford Junior …, priority 2009, dated 2014):

Legend:
[1] = test system: K562 human leukemia cells; test: K562 cell efficacy assay (MTT growth inhibition); type: cell-based; details: growth inhibition of K562 cells, 48 h, error as SEM
Protocol: A cell efficacy assay (See Mossmann, Rapid colorimetric assay for cellular growth and survival: Application to proliferation and cytotoxicity assays. J. Immunological Methods 1983, 65, 55-63) was used to determine the EC50 for growth inhibition for K562 human leukemia cells. […] Analog was added via 10 or 20 triplicate serial dilutions (11 or 21 total concentrations) by 3× starting from 10 μM (final assay concentration). The cells were incubated at 37° C. for 48 h and worked up using standard MTT ((3-(4,5-Dimthylthiazol-yl)-2,5-diphenyltetrazolium bromide) protocols. Each compound was tested three times, and the error is reported as SEM.

[2] = biological target: PKC βI (Homo sapiens, UniProt P05771); test: PKC competitive binding assay with [3H]PDBu, specific PKC isozyme
Sequence of UniProt P05771 (P05771 whole entry): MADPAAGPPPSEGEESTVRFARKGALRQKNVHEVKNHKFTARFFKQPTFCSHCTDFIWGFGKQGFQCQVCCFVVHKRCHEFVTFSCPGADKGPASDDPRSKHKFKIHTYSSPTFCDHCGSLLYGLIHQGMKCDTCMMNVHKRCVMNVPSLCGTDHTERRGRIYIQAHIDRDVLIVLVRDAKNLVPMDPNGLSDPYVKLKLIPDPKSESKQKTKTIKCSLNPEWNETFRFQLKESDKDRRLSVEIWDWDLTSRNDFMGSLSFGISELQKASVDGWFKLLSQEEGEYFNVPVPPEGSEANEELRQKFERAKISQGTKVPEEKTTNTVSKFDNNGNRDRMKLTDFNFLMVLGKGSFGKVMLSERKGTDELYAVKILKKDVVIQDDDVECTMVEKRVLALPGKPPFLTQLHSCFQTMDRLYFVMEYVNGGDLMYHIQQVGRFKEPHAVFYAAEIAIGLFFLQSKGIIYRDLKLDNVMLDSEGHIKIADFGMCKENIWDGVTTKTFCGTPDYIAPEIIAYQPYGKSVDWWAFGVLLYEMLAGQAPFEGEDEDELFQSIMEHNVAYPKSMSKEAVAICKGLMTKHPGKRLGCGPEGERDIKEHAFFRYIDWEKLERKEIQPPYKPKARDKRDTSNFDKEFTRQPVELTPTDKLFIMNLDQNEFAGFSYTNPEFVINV

[3] = test system: CD69; test: CD69 surface marker induction in primary quiescent CD4+ T cells; type: cell-based
Protocol: (§1) In addition to the U1 data, the compounds from Table 1 above were tested for their effects on surface markers in primary quiescent CD+ T cells (data generated by J. Zack et. al. at UCLA).

[4] = test system: U1 promonocytic cells containing two integrated HIV proviruses; test: Viral activation of U1 promonocytic cells, HIV p24 ELISA of supernatant; type: cell-based; details: for Minimum Concentration for Viral Expression: measured by p24 levels
Protocol: After 48 hours of incubation with compound, we harvest the supernatant and assess the amount of virus present by using an ELISA specific for HIV p24 (the core protein of the HIV virion).

[5] = biological target: rat brain PKC isoform mixture; type: binding
[6] = test system: CD4; test: CD4 surface marker decrease in primary quiescent CD4+ T cells; type: cell-based
Protocol: as §1

[7] = test system: latent HIV-1; details: more potent than prostratin; cited from earlier work
[8] = test system: HIV-1; details: CEM-SS and C-8166 cell lines; cited from earlier work
[9] = test system: CEM-SS and C-8166 cell lines; details: cited from earlier work

Row | SMILES | EC50 [1] | Ki [2] | Minimum Concentration for CD69 Induction [3] | Concentration at Maximum p24 Level [4] | Minimum Concentration for Viral Expression [4] | Ki [5] | Minimum Concentration for CD4 Decrease [6] | potency in activating latent HIV-1 relative to prostratin [7] | concentration at which cell viability was restored to the level of uninfected controls [8] | concentration up to which no sign of cytotoxicity was observed [9]
1 | CO[C@@H]1[C@@H](C)[C@@]2(O)[C@@H](C=C(CO)C[C@]3(O)C(=O)C(C)=C[C@@H]23)[C@@H]2C(C)(C)C12OC(C)=O (stereo partly drawn) [C12-Methyl-C13-Acetyl Phorbol] | 700 ± 200 nM | 3 nM | – | – | – | – | – | – | – | –
2 | C=C1CC2CC3CCCC(CC(O)CC(=O)OC(CO)CC4CC(=CC(=O)OC)C(OC(=O)CCCCCCC)C(O)(O4)C(C)(C)C=CC(O1)O2)O3 (stereo not drawn) [C13 Olefin] | – | – | 10 nM | 1000 nM | 1 nM | 1.63 nM | 100 nM | – | – | –
3 | CCCCCCCC(=O)OC1C(=CC(=O)OC)CC2CC(CO)OC(=O)CC(O)CC3CCCC(CC4CC(=CC(=O)OC)OC(C=CC(C)(C)C1(O)O2)O4)O3 (stereo not drawn) [C13 Z Enoate] | – | – | 1 nM | 100 nM | 0.1 to 1 nM | 0.9 nM | 100 nM | – | – | –
4 | CC1=C[C@H]2[C@@]3(O)[C@H](C)C[C@]4(OC(=O)Cc5ccccc5)[C@H]([C@@H]3C=C(CO)C[C@]2(O)C1=O)C4(C)C [DPP, 12-deoxyphorbol 13-phenylacetate] | – | – | – | – | – | – | – | 20-30 fold | – | –
5 | CCCCCCCC(=O)O[C@H]1/C(=C/C(=O)OC)C[C@H]2C[C@H](CO)OC(=O)C[C@H](O)C[C@@H]3CCC[C@H](C[C@@H]4CCO[C@H](/C=C/C(C)(C)[C@]1(O)O2)O4)O3 [Picolog] | – | – | 100 nM | 1000 nM | 10 nM | 3.1 nM | 1000 nM | – | – | –
6 | CC(=O)O[C@@]12C[C@@H](C)[C@@]3(O)[C@@H](C=C(CO)C[C@]4(O)C(=O)C(C)=C[C@@H]34)[C@@H]1C2(C)C [Prostratin, C12-deoxy-C13-acetyl phorbol, reference compound] | – | – | 1000 nM | 10000 nM | 1000 nM | – | 10000 nM | – | approximately 1 μM | about 25 μM
